Assay results: the supplement of paper PMC3334620
Over roughly 33,000 sequences, “E-score (-0.5 to 0.5)” has its median near -0.043; the highest 2% begin near 0.37. The list shows a part of the results.

Molecular target: T1, Upc2 (UniProt Q12151)
T1 sequence: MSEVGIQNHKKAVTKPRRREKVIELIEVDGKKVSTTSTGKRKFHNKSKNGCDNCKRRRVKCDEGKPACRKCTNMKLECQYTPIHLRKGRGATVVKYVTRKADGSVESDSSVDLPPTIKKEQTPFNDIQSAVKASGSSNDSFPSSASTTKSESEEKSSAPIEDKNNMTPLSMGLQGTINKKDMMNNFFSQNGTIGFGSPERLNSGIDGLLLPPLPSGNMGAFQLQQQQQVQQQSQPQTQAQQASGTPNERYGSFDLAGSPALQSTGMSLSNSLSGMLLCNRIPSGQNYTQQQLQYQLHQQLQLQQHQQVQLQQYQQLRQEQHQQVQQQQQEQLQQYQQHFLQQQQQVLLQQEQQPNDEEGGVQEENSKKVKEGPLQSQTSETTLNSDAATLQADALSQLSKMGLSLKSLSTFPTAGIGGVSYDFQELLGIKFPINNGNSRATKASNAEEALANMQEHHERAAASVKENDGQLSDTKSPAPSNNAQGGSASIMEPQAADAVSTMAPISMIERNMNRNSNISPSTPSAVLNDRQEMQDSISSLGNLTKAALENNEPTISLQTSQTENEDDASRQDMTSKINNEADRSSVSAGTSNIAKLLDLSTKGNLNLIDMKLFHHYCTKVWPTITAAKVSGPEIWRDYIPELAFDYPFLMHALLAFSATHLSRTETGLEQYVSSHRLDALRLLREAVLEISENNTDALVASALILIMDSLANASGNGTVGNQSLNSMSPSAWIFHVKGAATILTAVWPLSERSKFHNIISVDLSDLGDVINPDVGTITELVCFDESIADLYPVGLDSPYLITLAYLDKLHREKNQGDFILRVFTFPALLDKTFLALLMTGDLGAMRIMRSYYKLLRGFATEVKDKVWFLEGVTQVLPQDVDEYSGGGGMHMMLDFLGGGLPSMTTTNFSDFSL
Assay: PBM E-score (8-mer binding enrichment) (E-score (-0.5 to 0.5)); higher = stronger / more preferred TF binding; most listed sequences are background and not binding sites
Conditions: protein concentration: 200 nM; construct: GST-full length
In short: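 PURExpress in vitro transcription/translation supplied GST-tagged yeast transcription factors, either full-length or DNA-binding domain. Applied at about 100-200 nM to universal all-10-mer Agilent arrays double-stranded by primer extension, the bound protein was detected with fluorescent anti-GST. E-scores, modified Wilcoxon-Mann-Whitney statistics, were given by the Universal PBM Analysis Suite to ungapped eight-base words pooled with their reverse complements after masliner normalisation.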

Row | Sequence | PBM E-score
1 | GGCTCAAC | -0.232
2 | CACTTTAG | -0.302
3 | ATTGAGAC | -0.242
4 | GGATGTAA | 0.0769
5 | GGATTCTA | -0.0488
6 | CTCGTAGC | 0.4
7 | ATCTGTTC | 0.0527
8 | GCAGAGGC | -0.31
9 | AAATAACG | 0.216
10 | ATCGCCTG | -0.322
11 | CGGGCGAG | -0.043
12 | AGACGCAA | -0.209
13 | GGGCAGAA | -0.121
14 | GAGCGTGC | 0.0921
15 | AGCAGATC | -0.0952
16 | ATATTTGC | 0.0538
17 | ATCGCAGG | -0.0887
18 | CTGTCTTA | 0.085
19 | AGACACGG | -0.216
20 | ATGCCCCA | -0.172
21 | CGACTAGC | -0.0855
22 | CAAGGAGG | -0.142

Row | Sequence | PBM E-score
23 | AGAATCCG | 0.0767
24 | AATCTTCT | -0.207
25 | TCGGGAGA | -0.0351
26 | CTGTGACA | -0.246
27 | ATAGACGC | -0.0964
28 | CCGCTGCA | -0.117
29 | ATCAGGAA | -0.0338
30 | CTGCGAAG | -0.0517
31 | AACAGAGC | -0.118
32 | AACATCTG | -0.0922
33 | AGCCGAGA | -0.0386
34 | GGCACCCC | -0.0796
35 | TCCTCAGA | -0.193
36 | CGCGCAAG | 0.0883
37 | CAACAACC | 0.114
38 | CTAAGTTA | -0.0439
39 | AAGATCAT | 0.0203
40 | CCTCTGAC | -0.275
41 | CGAGCCAC | 0.0689
42 | CCGAATAA | 0.177
43 | CCACAAAG | -0.0612
44 | ACCCACAT | -0.0118

Row | Sequence | PBM E-score
45 | GTACGCTA | 0.264
46 | ACAGAAGA | -0.185
47 | ACGGTGTG | 0.0764
48 | ACATTTTG | -0.142
49 | CGGCCCAA | 0.167
50 | CGGAACCA | -0.128
51 | ATTGATGA | -0.0663
52 | GACTAGCC | -0.156
53 | ACCGCGAG | 0.136
54 | TTAGTAAA | 0.133
55 | AGGGGATG | -0.179
56 | AAGTAGGC | -0.0459
57 | AGATGCCG | 0.084
58 | ACGATGGA | 0.344
59 | AGCATAGG | -0.219
60 | CGGATATC | 0.202
61 | ATAGTCGA | -0.018
62 | ACACTAGA | 0.0609
63 | CCCATGCA | -0.319
64 | TCTATAAA | 0.218
65 | CATCTTAC | -0.0542
66 | ACAACTAT | -0.0179

Row | Sequence | PBM E-score
67 | GCTATAGC | -0.0757
68 | AAGCTAGG | -0.171
69 | CCCCAGTC | -0.00479
70 | CAGCAATA | -0.177
71 | AGGGCTTC | -0.0752
72 | ATCAAGAT | -0.0977
73 | GGCCGATA | -0.0563
74 | ACCTATCG | 0.0607
75 | TTCACGAA | 0.139
76 | ATGGCTTA | 0.0249
77 | TACTTTAA | 0.0517
78 | ACAAGGGG | -0.17
79 | CAGGCCCC | -0.175
80 | CCAATATA | -0.119
81 | CATTCCGG | -0.196
82 | GCCATTAC | 0.0133
83 | GATTTAAA | -0.102
84 | CGTCTTGC | -0.0751
85 | GCTTGTTA | 0.117
86 | GCCCTTTA | -0.0758
